# In PubChem BioAssay AID686978 (National Center for Advancing Translational Sciences (NCATS), 2013):
# Among all 420,000 compounds or so, about 64,000 (15%) were called active. This list was built around the results that the source calls inconclusive (neither active nor inactive); the mix of calls is not that of the screen. The call rests on the fitted dose curve; in most records, active means well fitted inhibition curve with a large enough effect; inconclusive means small, poorly fitted or top-dose-only effect; inactive means flat fitted curve, though single readings scatter. Potencies of inconclusive entries are left out as doubtful fits.
# Test: qHTS for Inhibitors of human tyrosyl-DNA phosphodiesterase 1 (TDP1): qHTS in cells in absence of CPT; further: nearly all actives have a fitted effect of over 55% in size
# Conditions: DT40 Tdp1-/- hTDP1 cells, no CPT, ATP luminescence, 48 h; activity change, negative = growth inhibition: at 46.2 µM (top of the series) unless noted
# Procedure, shortened: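 Growth kinetics read by CellTiter-Glo luminescence after ≥48 hr at 37 °C. Cells: DT40 Tdp1-/- stably carrying human TDP1, 400 per well, compound exposure in the absence of CPT (DMSO vehicle).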
# On the % scale 0 is the no-effect control and ±100 the full control effect; potency means the concentration at half of the fitted maximal effect; tags describe the fitted curve by direction and shape.
Structure (SMILES),Potency,"activity change, negative = growth inhibition"
CCOc1cc(S(=O)(=O)n2nc(C)cc2C)ccc1F,inactive,–
OCCNCc1cc(Br)ccc1OCc1ccc(F)cc1,"inconclusive [inhibitor, single point]",–
CCOC(=O)c1ccc(Nc2ccc(-c3ccc(OC)c(OC)c3)nn2)cc1,active: 4.61 µM,–
CC(C)(C)c1nc(NCC2CCCO2)c2nnn(Cc3ccccc3)c2n1 (stereo not given),"inconclusive [inhibitor, full curve]",–
CC(C)(CO)NC(=O)CC1C(=O)NCCN1Cc1ccc(-c2ccccc2)cc1 (stereo not given),–,inconclusive: -39.9% [inhibitor]
CC1(C)CC2CC(C)(CN2C(=O)COC(=O)c2cccc([N+](=O)[O-])c2)C1 (stereo not given),inactive,–
Cc1nn(-c2ccc(N3CCCCC3)nn2)c(C)c1CCC(=O)NCc1ccc(OC(C)C)cc1,active: 16.4 µM,–
CCCCCCCCCCCCCCC(O)C[N+](C)(CCO)CCO (stereo not given),active: 3.66 µM,–
COC(=O)c1sc(C(C)(C)C)cc1CS(=O)(=O)c1ccccn1,–,inconclusive: -32.4% [inhibitor]
Cc1nc(-c2ccccc2)c(Cc2ccccc2O)c(=O)[nH]1,active: 5.17 µM,–
O=C(c1ccc(S(=O)(=O)N2CCOCC2)cc1)N1CCc2ccccc21,"inconclusive [inhibitor, partial curve]",–
COc1cccc(NC(=O)CN(C)CC(=O)Nc2ccccc2-c2ccccc2)c1,"inconclusive [inhibitor, single point]",–
Cc1ccc(NC(=O)Cn2cc(S(=O)(=O)N3CCCC3)c(S(=O)(=O)N3CCCC3)c2)cc1F,inactive,–
Cc1ccccc1C(=O)Nc1ccc(OCc2cc(=O)n3ccccc3n2)cc1,inactive,–
CC(O)(c1cccc(F)c1)c1nc(-c2cccc(C(F)(F)F)c2)cs1 (stereo not given),"inconclusive [inhibitor, single point]",–
COc1ccc(S(=O)(=O)N2CCOC2CNC(=O)C(=O)NCCCN2CCOCC2)cc1 (stereo not given),inactive,–
COc1ccc(C(=O)N/N=C(\C)CC(=O)Nc2ccc(Cl)cn2)cc1,inactive,–
O=S(=O)(c1ccccc1)N1CCN(Cc2cc3c(cc2Br)OCCO3)CC1,"inconclusive [inhibitor, single point]",–
Cc1ccc2nc(-c3ccccc3)cc(C(=O)N3CCN(S(=O)(=O)c4c(C)noc4C)CC3)c2c1,active: 23.1 µM,–
CCOC(=O)c1sc(NNC(=O)c2ccc(C)cc2)nc1C,"inconclusive [inhibitor, single point]",–
Cc1c(C(=O)N2c3ccccc3CC2C)oc2ccccc12 (stereo not given),"inconclusive [inhibitor, partial curve]",–
Cc1ccc(CCNC(=O)c2c[nH]c3ccc(S(=O)(=O)Nc4ccc(C)cc4C)cc3c2=O)cc1,"inconclusive [inhibitor, partial curve]",–
CCc1ccccc1OCC(=O)Nc1cccc(S(=O)(=O)NCc2ccco2)c1,"inconclusive [inhibitor, single point]",–
COc1ccc(C)cc1NC(=O)CN(C)S(=O)(=O)c1ccc2c(c1)n(C)c(=O)c(=O)n2C,inactive,–

Structure (SMILES),Potency,"activity change, negative = growth inhibition"
Cc1ccc(S(=O)(=O)N2CCOCC2)cc1NC(=O)COC(=O)/C=C/c1ccco1,"inconclusive [inhibitor, single point]",–
Cc1ccc(NC(=O)CSc2ccc(-c3ccco3)nn2)c(C)c1,"inconclusive [inhibitor, partial curve]",–
O=C(c1ccc(O)c(Br)c1)c1cc(Br)ccc1O,"inconclusive [inhibitor, full curve]",–
COCCCNC(=O)c1ccc2c(=O)n(CC3CCCO3)c(=S)[nH]c2c1 (stereo not given),inactive,–
Cc1cc(C(=O)N/N=C/c2c(CO)cnc(C)c2O)c2ccccc2n1,"inconclusive [inhibitor, single point]",–
O=C(NNC(=O)c1cc2cc(OC(F)(F)F)ccc2[nH]1)c1ccc(Cl)cc1,"inconclusive [inhibitor, single point]",–
N#Cc1ccc(S(=O)(=O)NCCc2ccncc2)cc1,inactive,–
COc1ccc(/C=N/NC(=O)c2ccncc2)cc1Cn1nc([N+](=O)[O-])c(Br)c1C,"inconclusive [inhibitor, single point]",–
COc1cccc(C(=O)NCC(c2ccc(N(C)C)cc2)N2CCc3ccccc32)c1 (stereo not given),"inconclusive [inhibitor, partial curve, poor fit]",–
Cc1cnc(-n2ncc(C(=O)NCCc3ccncc3)c2-c2cccs2)nc1-c1ccc(F)cc1,"inconclusive [inhibitor, single point]",–
CC(C)C(C)NC(=O)COc1ccc(Sc2ccc(OCC(=O)NC(C)C(C)C)cc2)cc1 (stereo not given),active: 8.2 µM,–
O=C(CSc1nnc(COc2ccccc2)n1Cc1ccco1)c1ccc(F)cc1,"inconclusive [inhibitor, partial curve]",–
COC(=O)c1cc2oc(C)cc2n1CC(=O)N1CCCc2ccccc21,"inconclusive [inhibitor, single point]",–
CCN(CC)CCCOc1nc(C)nc2c1oc1ccccc12,"inconclusive [inhibitor, single point]",–
CCC(C)(C)n1nnnc1C(c1ccc2ncccc2c1)N1CCCC(C)C1 (stereo not given),active: 11.2 µM,–
COc1cccc(OC)c1OCCOc1ccccc1OC(C)C,"inconclusive [inhibitor, partial curve]",–
COc1ccc(-n2nnc(-c3nsc(NC(=O)c4cccs4)n3)c2C)cc1OC,inactive,–
COc1ccccc1OCc1ccc(C(=O)N2CCN3CCCC3C2)cc1 (stereo not given),"inconclusive [inhibitor, single point]",–
O=C(CCN1C(=O)/C(=C/C=C/c2ccccc2)SC1=S)Nc1nccs1,"inconclusive [inhibitor, partial curve]",–
CCOc1ccccc1N(C)S(=O)(=O)c1ccc2c(c1)CCN2C(=O)CCC(=O)O,inactive,–
COCCNc1nnc(SC(C)C(=O)Nc2c(C)n(C)n(-c3ccccc3)c2=O)s1 (stereo not given),inactive,–
CCS(=O)(=O)N1CC(=O)N(c2cc(C)ccc2C)C(C)(C(=O)NC2CCCCC2)C1 (stereo not given),inactive,–
CCOc1ccccc1/C=N/NC(=O)c1cccc(S(=O)(=O)N(CC)CC)c1,inactive,–
CCCCn1c(N)c(N(CC(C)C)C(=O)CSc2nn(-c3ccc(F)cc3)c(=S)s2)c(=O)[nH]c1=O,inactive,–

Structure (SMILES),Potency,"activity change, negative = growth inhibition"
CCCCCCCC[n+]1cccc(C(=O)N2c3c(nc(N)[nH]c3=O)NC(C)C2C)c1 (stereo not given),inactive,–
O=C(O)CC/C(=C\c1cccc(NC(=O)c2ccccc2Cl)c1)c1nc2ccccc2s1,"inconclusive [inhibitor, partial curve]",–
Cc1c(Cl)cccc1NC(=O)C(CCS(C)(=O)=O)N1Cc2ccccc2C1=O (stereo not given),inactive,–
O=C(NC1CCCCC1)c1ccc(S(=O)(=O)NCc2cccnc2)cc1,"inconclusive [inhibitor, partial curve, poor fit]",–
CC(C(=O)N1c2ccccc2CC1C)N1CCN(S(=O)(=O)c2ccccc2F)CC1 (stereo not given),–,inconclusive: -53.5% [inhibitor]
Cc1ccccc1OCC(=O)NCCNC(=O)c1ccccn1,inactive,–
Cc1ccc(NC(=O)COC(=O)c2cccnc2)c(C)c1,inactive,–
COc1ccc(CCC(=O)N2CCN(S(=O)(=O)c3cccc(Cl)c3)CC2)cc1,"inconclusive [inhibitor, single point]",–
CC(C)(C)c1ccccc1NC(=O)Nc1nc(C(N)c2ccccc2Cl)cs1 (stereo not given),"inconclusive [inhibitor, single point]",–
CC(=O)c1c(C)oc2ccc(N(C(=O)Oc3ccccc3)S(=O)(=O)c3ccccc3)cc12,active: 10.3 µM,–
NC(=O)Cc1ccc(OCc2nn[nH]n2)cc1,inactive,–
COc1ccc(Oc2nc(SC)nc3ccsc23)cc1,"inconclusive [inhibitor, single point]",–
Cc1ccc(S(=O)(=O)c2c(Nc3cc(C)ccc3C)sc(C(=O)c3ccc4c(c3)OCO4)c2N)cc1,active: 7.31 µM,–
COC1C[C@@H](O[C@@H]2C(C)C(=O)OC(C)C(C)[C@H](OC(C)=O)C(C)C(=O)[C@@]3(CO3)CC(C)C(OC3OC(C)CC(N(C)C)[C@H]3OC(C)=O)C2C)OC(C)[C@@H]1OC(C)=O (stereo not given in full),inactive,–
COc1ccc(S(=O)(=O)N2CCN(c3ncnc4c(-c5ccccc5)nsc34)CC2)cc1,"inconclusive [inhibitor, single point]",–
COC(=O)c1ccc(CNC(=O)c2ccc(S(=O)(=O)N3CCCCCC3)cc2)cc1,"inconclusive [inhibitor, single point]",–
Cc1cc(-c2nnco2)c(C)n1-c1ccccc1,"inconclusive [inhibitor, single point]",–
COc1cccc(NC(=O)c2ccc(N3C(=O)C4CC=C(C)CC4C3=O)cc2)c1 (stereo not given),"inconclusive [inhibitor, single point]",–
C[C@H](c1ccccc1)n1nnc(COCc2ccccc2)c1C#CCOCc1ccccc1,"inconclusive [inhibitor, single point]",–
COCCn1c(=S)[nH]c2cc(C(=O)NC3CCCCC3C)ccc2c1=O (stereo not given),"inconclusive [inhibitor, single point]",–
CC(CNC(=O)c1cc(-c2ccccc2)n[nH]1)c1ccccc1 (stereo not given),"inconclusive [inhibitor, single point]",–
CSc1cccc(NC(=O)OC2CCCCCCCCCCC2)c1,active: 20.6 µM,–
